Source: PubChem BioAssay AID1460 (National Center for Advancing Translational Sciences (NCATS), 2008)
Values joined by “and” are separate entries in the source; they are usually repeats but may differ in a detail not shown here. Equal values may be shown once. In all, about 270,000 compounds went through this assay and about 5,800 (2.1%) were called active. Inconclusive results, whose numbers are uncertain, are shown with a selection of clear calls. Calls follow the shape of the dose curve; as a rule, active = well fitted inhibition curve with a large enough effect; inconclusive = small, poorly fitted or top-dose-only effect; inactive = flat fitted curve, though single readings scatter. A potency beside an inconclusive call is a rough fit, not a confirmed value.

Molecular target: Microtubule-associated protein tau (Homo sapiens) (UniProt P10636)
UniProt P10636, sequence (P10636 whole entry, looked up): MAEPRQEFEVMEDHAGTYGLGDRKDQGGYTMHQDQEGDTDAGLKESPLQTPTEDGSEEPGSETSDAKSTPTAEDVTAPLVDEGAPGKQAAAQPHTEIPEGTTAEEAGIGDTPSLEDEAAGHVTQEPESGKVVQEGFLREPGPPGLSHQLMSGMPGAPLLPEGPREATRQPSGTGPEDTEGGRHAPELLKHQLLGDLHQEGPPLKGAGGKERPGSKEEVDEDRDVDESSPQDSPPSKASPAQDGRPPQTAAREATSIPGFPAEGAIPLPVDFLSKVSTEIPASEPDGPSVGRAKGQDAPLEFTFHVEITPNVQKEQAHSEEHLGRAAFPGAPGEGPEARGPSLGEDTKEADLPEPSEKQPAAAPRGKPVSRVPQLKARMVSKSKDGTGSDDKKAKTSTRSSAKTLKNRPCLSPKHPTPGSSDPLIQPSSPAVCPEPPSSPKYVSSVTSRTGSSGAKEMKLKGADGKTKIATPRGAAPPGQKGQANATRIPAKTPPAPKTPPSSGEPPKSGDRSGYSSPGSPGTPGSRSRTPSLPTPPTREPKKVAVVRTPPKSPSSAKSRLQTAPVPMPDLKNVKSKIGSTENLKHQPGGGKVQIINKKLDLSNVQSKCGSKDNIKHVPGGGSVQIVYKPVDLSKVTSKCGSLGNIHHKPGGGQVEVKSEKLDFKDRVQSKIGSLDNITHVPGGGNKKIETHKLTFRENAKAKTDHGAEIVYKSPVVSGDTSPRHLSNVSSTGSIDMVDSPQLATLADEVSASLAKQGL
Experiment: qHTS for Inhibitors of Tau Fibril Formation, Thioflavin T Binding; also: nearly all actives have a fitted effect of over 55% in size
Details: recombinant tau K18 P301L, heparin-induced fibrillization, ThT fluorescence; series mostly up to 57.4 µM
Procedure, shortened: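 Fibril formation assay: tau K18 P301L at 15 uM with trace Alexa 594 label, heparin inducer 20 uM, pH 7 sodium acetate buffer, 37 C for 6 hr; endpoint ThT signal.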
% is scaled to controls: 0 for no effect and ±100 for the full control effect; potency is read from the fitted curve at half-maximal effect; tags tell the direction and shape of the fitted curve.

SMILES	Potency	activity, negative = inhibition
CO[C@H]1C[C@@H]2CC[C@@H](C)[C@@](O)(O2)C(=O)C(=O)N2CCCC[C@H]2C(=O)OC([C@H](C)C[C@@H]2CC[C@@H](O)[C@H](OC)C2)CC(=O)[C@H](C)/C=C(\C)[C@@H](O)[C@@H](OC)C(=O)[C@H](C)C[C@H](C)/C=C/C=C/C=C/1C (stereo not given in full)	inconclusive: 12.6 µM [inhibitor, partial curve] and inconclusive: 6.31 µM [inhibitor, partial curve]	
Cn1c(SCC(=O)NC2CCCC2)nnc1-c1ccncc1	inactive	
COC(=O)CC1=NN(c2ccccc2)C(=O)/C1=C\c1ccc(OC)cc1	inconclusive: 39.8 µM [inhibitor, single point]	
COC(=O)[C@H](C)NC(=O)C/C=C\[C@@H](C)[C@@H](CO)OC		inactive: 0.992% [at 11.5 µM]
O=C(COC(=O)c1c2c(nc3ccccc13)/C(=C/c1ccco1)CC2)NC1CCCC1	inconclusive: 15.8 µM [inhibitor, partial curve]	
COc1cccc([C@H]2Oc3ccc(OC)cc3/C(=N\OC[C@@H](O)[C@@H]3O[C@@H]4OC(C)(C)O[C@@H]4[C@H]3O)[C@@H]2O)c1		inactive: -14.5% [at 11.5 µM]
CCOc1ccccc1N1Cc2cc(C)c(C)cc2C1	inconclusive: 17.8 µM [inhibitor, single point]	
CCOc1cccc(-c2nnc3sc(COc4ccc(OC)cc4)nn23)c1	inconclusive: 5.62 µM [inhibitor, full curve]	
CCc1cc2c(cc3c(=O)n(CC(=O)NCc4cc(Br)ccc4OC)ncn32)s1	inconclusive: 5.01 µM [inhibitor, full curve, poor fit]	
Cc1conc1NC(c1cccs1)c1ccc2cccnc2c1O (stereo not given)	inconclusive: 15.8 µM [inhibitor, partial curve]	
NS(=O)(=O)c1ccc(Nc2nc(-c3ccccc3)cs2)cc1	inconclusive: 3.98 µM [inhibitor, full curve]	
CCOc1ccc(OC(=O)c2c(-c3ccccc3Cl)noc2C)cc1	inactive	
COC1=C/C(=C/c2c(N)n3nc(-c4ccc(C)cc4)sc3nc2=O)C=CC1=O	active: 10 µM	
NC1=NC[C@H](Cc2ccc(O)cc2)N1CC1CCCCC1	inactive	
O=C(CCCc1c[nH]c2ccccc12)N1CCN(c2ccc(N3CCOCC3)nn2)CC1	inconclusive: 2 µM [inhibitor, partial curve]	
CCN(CC)C(=O)C1CCCN(Cc2ccccc2C(F)(F)F)C1 (stereo not given)	inactive	
O=[N+]([O-])c1ccc(Oc2cccc(Br)c2)c2ccncc12	inconclusive: 28.2 µM [inhibitor, partial curve]	
S=C(Nc1ccc2nsnc2c1)N1CCCCC1	inconclusive: 25.1 µM [inhibitor, partial curve]	
Oc1ccc(C(=S)N2CCCCCC2)cc1	inconclusive: 22.4 µM [inhibitor, single point]	
CC1=CC2=NC(=O)/C(=C\c3cc(C)n(-c4ccccc4)c3C)C(=N)N2O1	inconclusive: 1.78 µM [inhibitor, full curve, poor fit]	
COc1ccc(Nc2nc(N3CCCCC3)c3ccccc3n2)cc1	inconclusive: 35.5 µM [inhibitor, single point]	
O=C(O)c1c(NC(=O)c2cccc3ccccc23)sc2c1CCC2	inconclusive: 12.6 µM [inhibitor, partial curve]	

SMILES	Potency	activity, negative = inhibition
C=CCN1C=C2C(=O)C(C)(OC(=O)c3ccc(OC)cc3)C(=O)C(c3ccco3)=C2C=C1CCCC (stereo not given)	inconclusive: 11.2 µM [inhibitor, partial curve]	
CC(=O)Nc1nc(=S)ss1	inconclusive: 28.2 µM [inhibitor, single point]	
CN(C)c1nc(-c2ccoc2)nc2ccccc12	inconclusive: 20 µM [inhibitor, partial curve]	
COc1ccc2cc(CNc3ccc(OC)c(OC)c3)c(=O)n(CC(=O)Nc3ccccc3F)c2c1	inconclusive: 10 µM [inhibitor, partial curve, poor fit]	
CCOC(=O)C1CCN(C(=O)c2c(-c3ccccc3)noc2C)CC1	inactive	
Cc1cccc(-n2nc(CC#N)c(C#N)c2N)c1	inconclusive: 25.1 µM [inhibitor, single point]	
O=C(CSc1nc2c(cnn2-c2ccc(F)cc2)c(=O)[nH]1)N1N=C(c2cccs2)CC1c1ccc(F)cc1 (stereo not given)	inconclusive: 17.8 µM [inhibitor, partial curve]	
Cc1ccc(-c2nn(-c3ccccc3)cc2CNCc2ccccc2)cc1	inconclusive: 39.8 µM [inhibitor, single point]	
Cc1ccc(NC(=O)c2ncoc2-c2ccco2)cc1Cl	inconclusive: 2.51 µM [inhibitor, full curve]	
Cn1cccc1-c1cc2n(n1)CCC(=O)N2CCCC(=O)NCc1ccc(F)cc1	inactive	
Cc1onc(-c2c(F)cccc2Cl)c1C(=O)OCC(=O)NCc1ccco1	inconclusive: 17.8 µM [inhibitor, partial curve, poor fit]	
COc1ccc(C(=O)Nc2ccc3oc(-c4ccc5ccccc5c4)nc3c2)cc1Br	inconclusive: 15.8 µM [activator, partial curve]	
CCOc1ccc(-c2nnc(SCC(=O)c3ccccc3)n2-c2ccccc2)cc1	inconclusive: 4.47 µM [inhibitor, full curve, poor fit]	
C/C(=N\N1CCN(c2ccc(Cl)cc2)CC1)c1cccc([N+](=O)[O-])c1	inconclusive: 12.6 µM [inhibitor, partial curve]	
COc1ccc(NC(=O)/C(C#N)=C\c2cc(C)n(-c3ccc4c(c3)OCO4)c2C)cc1	inconclusive: 3.98 µM [inhibitor, partial curve]	
CCOc1ccc(NC(=O)C2CCN(S(=O)(=O)c3c(C)noc3/C=C/c3cccs3)CC2)cc1	inactive	
O=C(CNC(=O)c1ccccc1F)OCc1cc(=O)n2nc(C3CCCCC3)sc2n1	inconclusive: 8.91 µM [inhibitor, partial curve]	
CC(=O)Nc1cccc(NC(=O)CSc2nnc(Cc3cccn3C)n2CCc2ccccc2)c1	inactive	
CCS(=O)(=O)Nc1ccc2c(c1)OCO2	inconclusive: 17.8 µM [inhibitor, partial curve]	
Cc1cccc(OCCC(=O)OCC(=O)N2CCc3ccccc32)c1	inconclusive: 22.4 µM [inhibitor, partial curve]	
CCc1cc(C(=O)Cc2nc3ccccc3s2)c(O)cc1OCC(=O)O	inconclusive: 12.6 µM [inhibitor, partial curve]	
CCOC(=O)C1CCCN(Cc2nc3ccc([N+](=O)[O-])cc3c(=O)n2-c2ccc(OC)cc2OC)C1 (stereo not given)	inconclusive: 25.1 µM [inhibitor, single point]	

SMILES	Potency	activity, negative = inhibition
COc1ccc(CCNC(=O)c2cc(-c3ccccc3OC)on2)cc1OC	inconclusive: 7.94 µM [inhibitor, full curve]	
C(=N\Nc1nc(Nc2ccccc2)nc(Nc2ccccc2)n1)/c1ccncc1	inactive	
OCCN(Cc1ccccc1)CC(O)COc1ccc(-c2ccccc2)cc1 (stereo not given)	inconclusive: 17.8 µM [inhibitor, single point]	
Cc1c(/C(O)=C2\C(=O)C(=O)N(CCN(C)C)C2c2cccs2)cnn1-c1ccccc1 (stereo not given)	inconclusive: 10 µM [inhibitor, partial curve]	
Cc1cc(C(=O)Nc2nc(-c3ccccn3)cs2)ccc1[N+](=O)[O-]	active: 11.2 µM	
CCCCn1c(NC(=O)c2ccco2)c(S(=O)(=O)c2ccc(C)cc2)c2nc3ccccc3nc21	active: 15.8 µM	
O=c1/c(=C\c2cccnc2)sc2nc3ccccc3n12	inconclusive: 2.24 µM [inhibitor, full curve]	
COc1ccc(/C=C2\CCn3c2nc2cc(C(=O)O)ccc2c3=O)cc1OC	inconclusive: 7.08 µM [inhibitor, full curve]	
O=S(=O)(c1ccc(-c2csc(=Nc3ccc(OC(F)(F)Cl)cc3)n2CCCO)cc1)N1CCCC1	inconclusive: 10 µM [inhibitor, partial curve]	
CC(C)(C)c1ccc(Oc2ccc(NC(=O)CCC(=O)OCC(=O)c3ccccc3)cc2)cc1	inactive	
C=CCN(C(=O)c1cccc(S(=O)(=O)N2CCN(C)CC2)c1)c1nc(-c2ccccc2)cs1	inconclusive: 20 µM [inhibitor, partial curve, poor fit]	
CC1Cc2ccccc2N1c1nc(C2CC2)nc2c1nnn2Cc1ccccc1 (stereo not given)	inactive	
Cc1ccc2oc(=O)c3cc(C(=O)N4CCN(c5ccccc5F)CC4)sc3c2c1	inconclusive: 39.8 µM [inhibitor, single point]	
Cc1nc(/C(N)=N/OC(=O)Cc2ccccc2)no1	inactive	
COc1ccc(NC(=O)CSc2nnc(NC(=O)c3ccccc3C(=O)O)s2)cc1	inconclusive: 11.2 µM [inhibitor, partial curve]	
Nc1c(C(=O)N/N=C/c2cccnc2)oc2nc(-c3ccco3)cc(-c3ccco3)c12	active: 15.8 µM	
Cc1ccc(C(=O)Nc2cccc(Oc3ccccc3)c2)o1	inactive	
COC(=O)c1c(-c2ccc(Br)cc2)csc1NC(=O)Cc1ccc(OC)c(OC)c1	inconclusive: 39.8 µM [inhibitor, partial curve, poor fit]	
CC1=NN(c2ccccc2)C(=O)C1(C)C	inactive	
CN(C)c1ccc(-c2nnc3n(Cc4ccccc4)c(=O)c4ccccc4n23)cc1	inactive	
Cc1cc(C)n(/N=C/c2cc(Cl)cc(Cl)c2O)c(=O)c1	inconclusive: 17.8 µM [inhibitor, partial curve]	
